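1) Cells in 96-well plates. 2) Compound, 48 h, 5 concentrations. 3) Linear interpolation between surrounding doses. 4) Unreached endpoint = highest concentration. At the GI50, growth is halved. TGI marks complete inhibition of growth.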
System: NCI-H322M lung
Experiment: inhibition of tumour cell growth, NCI panel, 48 h

SMILES | TGI | GI50
COc1ccc(C2SCC(=O)N2c2ccc(-n3c(-c4ccccc4)nc4ccccc4c3=O)cc2)cc1OC (stereo not given) | > 100 µM | 
C/C(=N\NC(=O)c1ccncc1)c1ccc2ccccc2c1O | > 100 µM | 
O=P(O)(O)c1ccccc1 (tested in a mixture with another compound) | > 100 µM | 
O=c1[nH]c(=O)n(C2CC(O)C(CO)O2)cc1OCCCc1ccccc1 (stereo not given) | > 100 µM | 
O=C1/C(=C\c2cccc(Oc3ccccc3)c2)S(=O)(=O)C(c2ccccc2)N1c1ccc(Cl)cc1 (stereo not given) | > 100 µM | 
COc1ccc(NC(=O)n2nc(N)c3ccccc32)cc1OC | > 100 µM | > 100 µM
COc1ccc(C2C3C(=O)C=CC(=O)C3[C@@H]2C)cc1OC (stereo not given in full) | > 100 µM | 
CCC(C)n1cc(C)c2c(C(=O)NCc3c(C)cc(C)[nH]c3=O)cc(Br)cc21 (stereo not given) | > 100 µM | > 100 µM
CC1(C2(C)OC(=O)c3ccccc32)OC(=O)c2ccccc21 (stereo not given) | > 100 µM | 
CC1CC[C@@]2(OC1)OC1C[C@H]3[C@@H]4C/C(=N\N(C)C)[C@@]5(O)CC(O)CC[C@]5(C)[C@H]4CC[C@]3(C)C1[C@@H]2C (stereo not given in full) | 82.9 µM | 
CC(C)(C)[Si](C)(C)OCC1OC(n2cnc3c(NC(=O)c4ccccc4)ncnc32)CC1O (stereo not given) | > 100 µM | 
O=C(CC(=O)N1N=C(N2CCCCC2)CC1c1ccccc1)Nc1ccc(Cl)cc1 (stereo not given) | > 100 µM | 
CC(C)(C)N(Cc1ccc2c(c1)OCO2)C(=O)/C=C\S(=O)c1ccccc1 (stereo not given) | 24.5 µM | 
CC1(c2nc3cc(Cl)c(Cl)cc3[nH]2)CCC(CO)C(C)(C)O1 (stereo not given) | > 100 µM | 
N#Cc1c(-c2ccco2)cc(-c2ccc(NCc3nc4ccccc4[nH]3)cc2)nc1N | > 100 µM | 
O=C(CC1(O)C(=O)Nc2ccccc21)c1ccccc1Cl (stereo not given) | > 100 µM | 
CCOc1ccc(/C(O)=C/c2nc3ccccc3nc2/C=C(\O)c2ccc(OCC)cc2)cc1 | > 100 µM | 
CN(NC(=O)CCCl)C1=NCCN1 | > 100 µM | 
COc1ccc(/C(Cl)=C(\C=O)c2ccc([N+](=O)[O-])cc2)cc1OC | 43.7 µM | 
COC(=O)C(CCCC1(c2ccccc2)OCCO1)C(C)=O (stereo not given) | > 100 µM | 
COc1ccc(C2=NNC(=O)OC2c2ccccc2)cc1 (stereo not given) | > 100 µM | 
CC(=O)Oc1cc(OC(C)=O)c2c(=O)c3ccccc3[nH]c2c1 | > 100 µM | 
CN(C)c1ccc(/C=C(/NC(=O)c2ccccc2)c2nc3ccc(Cl)cc3[nH]2)cc1 | > 100 µM | > 100 µM
CC(C)(C)c1nc2c(o1)C(=O)c1ccccc1C2=O | 5.73 µM | 
N#CC(C(=O)/C(=N\Nc1nc(=S)[nH]n1N)C(C#N)c1ccc(Cl)cc1)c1ccc(Cl)cc1 (stereo not given) | > 100 µM | 

SMILES | TGI | GI50
CC1=CC(=O)CCC2(C)C1CC[C@@H]2OC=O (stereo not given in full) | > 100 µM | 
CC(=O)OCC1OC(n2c3c(c(-c4ccco4)c(C#N)c2=S)CCC3)C(OC(C)=O)C(OC(C)=O)C1OC(C)=O (stereo not given) | > 100 µM | 
CN1CCCNc2c(c(=O)c2=O)NCCCN(C)CCCNc2c(c(=O)c2=O)NCCCN(C)CCCNc2c(c(=O)c2=O)NCCCN(C)CCCNc2c(c(=O)c2=O)NCCCN(C)CCCNc2c(c(=O)c2=O)NCCCN(C)CCCNc2c(c(=O)c2=O)NCCCN(C)CCCNc2c(c(=O)c2=O)NCCC1 | 10.7 µM | 4.77 µM
Cc1nc2sccn2c(=O)c1CCN1CCC(=C(c2ccc(F)cc2)c2ccc(F)cc2)CC1 | 27.5 µM | 14.3 µM
COC(=O)C1=C(C(=O)OC)C2(OC(C)=O)c3ccccc3-c3ccccc3C12 (stereo not given) | 38.3 µM | 
CC1(C)CC(=O)C2=C(C1)c1c(ccc3ccccc13)NC2c1cn(Cc2ccc(Cl)cc2)c2ccccc12 (stereo not given) | > 100 µM | 
CCCCCNc1nonc1N | > 100 µM | 
O=P(Oc1ccccc1)(Oc1ccccc1)Oc1c[nH]c2ccccc12 | 35.9 µM | 
CC(C)[C@@]12C[C@@H](OC(=O)[C@H]3CO3)[C@@](C)(O1)[C@@H]1CC[C@@H](C)[C@H]1[C@@H]2OC(=O)/C=C/c1ccccc1 | 28.5 µM | 13.8 µM
O=C(NNC(=S)Nc1ccccc1)c1ccccc1Nc1ccccc1C(=O)NNC(=S)Nc1ccccc1 | 66.1 µM | 
CN(C)CCNc1ccc2c(=O)n(CCN(C)C)c(=O)n3c4ccc([N+](=O)[O-])cc4c(=O)c1c23 | 2.21 µM | 
S=C(N/N=C(/c1ccccc1)c1ccccn1)Nc1ccccc1Cl | 13.7 µM | 
Cc1ccc(NC(=O)c2cccc([N+](=O)[O-])c2O)c([N+](=O)[O-])c1 | 49.1 µM | 
O=C1C(CN2CCCCC2)CCCC1CN1CCCCC1 (stereo not given) | > 100 µM | 
C1CCN(CCC2CCCCN2)CC1 (stereo not given) | > 100 µM | 
Clc1ccc(SCCSCCCCCCCCCCSCCSc2ccc(Cl)cc2)cc1 | > 100 µM | 
COc1cc2c(cc1OC)-c1cc3cc(OC)c(OC)cc3n1CC2 | > 100 µM | 
CC(=O)Nc1ccc(Sc2ccc([N+](=O)[O-])o2)cc1 | 26.1 µM | 12.1 µM
Nc1c(-c2nc3ccccc3s2)c2ccc([N+](=O)[O-])cc2c(=O)n1-c1cccc(C(=O)O)c1 | 69.9 µM | 
CC1=C2C(=O)[C@H]3[C@@H](CC=C4C[C@@H](O)CC[C@@]43C)[C@@H]2CC[C@]12O[C@@H]1C[C@H](C)CN[C@H]1[C@H]2C | > 62.5 µM | 
O=C1CCC[C@]2(CCC[C@@H](O)C2)N1 | > 100 µM | 
COC(OC)c1cccc2c1C(=O)CCC1(O)c3ccccc3C1C2 (stereo not given) | > 100 µM | 
CC(=O)O/N=C/c1ncccc1OC(C)=O | > 100 µM | 
CCn1c2c(n(CC)c1=S)-c1c(n(CC)c(=S)n1CC)SSSS2 | > 95.7 µM | 
CC1(C)N=C(C(N)=O)c2ncn(-c3ccccc3)c2N1 | > 100 µM | 

SMILES | TGI | GI50
CS(=O)CCCCCN=C=S (stereo not given) | 20.5 µM | 4.96 µM
CCN(CC)CCCNc1cccc2c(SCc3ccccc3)ccnc12 | 3.65 µM | 2 µM
Cn1c(=O)cc(NCc2ccc(Cl)cc2)[nH]c1=O | > 100 µM | 
Cc1ccc(-c2c(C#N)c(S)n(NS(=O)(=O)c3ccc(C)cc3)c(=O)c2C#N)cc1 | > 100 µM | 
CCCCCCCCCCCCCCCCCC1=NCCN1CS(=O)(=O)O | 20.2 µM | 7.02 µM
CC1C[C@H](OC(N)=O)C(C)CC1=O (stereo not given in full) | > 100 µM | 
Cc1cc(N(CCC#N)S(C)(=O)=O)ccc1C=O | > 100 µM | 
O=C/C(=C(/Br)I)c1ccccc1 | 28.8 µM | 
CCCCn1c(C)c(C(=O)OCC)s/c1=N/Nc1nc2ccccc2nc1-c1ccccc1 | > 100 µM | 
CC1(C)CC[C@]2(C)CC=C3[C@]4(C)CC[C@H]5C(C)(C)C(=O)CC[C@]5(C)[C@H]4CC[C@@]3(C)[C@H]2C1 | > 100 µM | 
O=[N+]([O-])c1cccc2nc3ccccc3c(NCCc3cccc[n+]3[O-])c12 | 0.723 µM | 
CN1C2CC(=O)CC1[C@H](O)[C@@H]2O | > 100 µM | 
COc1cc(/C=C/c2cc(/C=C/c3ccc(O)c(OC)c3)n(-c3c(C)cccc3C)c(=O)n2)ccc1O | 5.34 µM | 0.952 µM
COc1nc(SC)nc2c1cnn2C1OC(C(O)CO)C(OC)C1O (stereo not given) | > 100 µM | 
COC(=O)C(O)P(=O)(OC)OC (stereo not given) | > 100 µM | 
COc1cc(C2C(Cl)C(=O)N2NC(=O)c2ccccc2O)ccc1O (stereo not given) | > 100 µM | 
Cn1nc(/C=C\C(=O)N2CC(CCl)c3c2cc(N)c2ccccc32)cc1/C=C/C(=O)N1CC(CCl)c2c1cc(N)c1ccccc21 (stereo not given) | 0.0245 µM | 
CCc1n[nH]c(=O)n1/N=C/c1ccccc1Cl | > 100 µM | 
CCCCCCOc1ccc(C(=O)NOCc2ccccc2)cc1 | > 100 µM | 
CCOC(=O)CCC(NC(=O)c1ccc(Oc2nc3ccc(C(F)(F)F)cc3nc2-c2ccccc2)cc1)C(=O)OCC (stereo not given) | > 100 µM | 
COc1ccc(-c2csc(=Nc3ccccc3)n2CC(O)c2ccc([N+](=O)[O-])cc2)cc1 (stereo not given) | > 100 µM | 
ClC1=C(Cl)C(Cl)=C(Cl)C1=C/C=C/c1ccccc1 | 2.36 µM | 0.729 µM
C=C/C=C(\NC(=O)C(Cl)(Cl)Cl)[Si](C)(C)C | > 100 µM | 
CCCCCCCC/C=C/CCCCCCCCC1=NCCN1CCO | 11.3 µM | 3.29 µM
O=c1oc2ccccc2c(O)c1C(c1ccco1)c1c(O)c2ccccc2oc1=O | > 100 µM | 

SMILES | TGI | GI50
COc1cc2c(cc1OCCOS(C)(=O)=O)N=C[C@@H]1CCCN1C2=O | > 100 µM | 
O=c1cc(N2CCOCC2)[nH]c(=O)n1-c1cccc(C(F)(F)F)c1 | > 100 µM | 
O=C1OCC(c2cccs2)=C1Cl | 51.3 µM | 17 µM
CSc1nc(-c2cc3c(c(SC)n2)CCCCC3)cc2c1CCCCC2 | > 100 µM | 
CC/C=C1\N=C(c2ccc(Cl)cc2)OC1=O | > 100 µM | 
COC1=CC(=O)[C@H]2[C@H](C)C(c3ccccc3)[C@@]2(C)C1=O (stereo not given in full) | > 100 µM | 
COC(=O)c1ccc2c(c1)nc(-c1cc3ccccc3[nH]c1=O)n2-c1cc(C(C)(C)C)[nH]n1 | > 100 µM | 1.28 µM
COc1ccc(C(=O)c2ccc(OC)c(OC)c2OC)cc1 | > 100 µM | 7.72 µM
COc1ccc(/C=C2\C[C@H]3[C@@H]4CCC5=C[C@@H](N6CCCC6)CC[C@]5(C)[C@H]4CC[C@]3(C)[C@H]2O)cc1 | 12.8 µM | 
C[C@]12CC[C@@H]3c4cc(OCC(F)(F)F)c(O)cc4C(=O)C[C@H]3[C@@H]1CC[C@@H]2O | > 100 µM | 
CN(C)c1ccc(C(=C2C=CC(=[N+](C)C)C=C2)c2ccc(N(C)C)cc2)cc1 (tested in a mixture with another compound) | 1.56 µM | 0.16 µM
COc1ccc(Nn2c(SCC(=O)Nc3nc(-c4ccc(Cl)cc4)cs3)nc(C)c2C)cc1 | > 100 µM | > 100 µM
CSc1cnn(CCC#N)c(=O)n1 | > 100 µM | 
COc1cc(NCCCCN=C(N)NC(N)=NC(C)C)c2ncccc2c1 | 47.7 µM | 12 µM
O=C1NC(Cc2c[nH]c3ccccc23)C(=O)N2C(C3CCCCC3)c3[nH]c4ccccc4c3C[C@@H]12 (stereo not given in full) | 59.6 µM | 
CCN(CC)c1cc(/C=C/c2ccc(OC)c(OC)c2)nc2cc(F)c(F)cc12 | > 100 µM | > 100 µM
COC1=CC(O)(CC(N)=O)c2ccccc2C1=O (stereo not given) | > 100 µM | 
Cc1cc(C)nc(NS(=O)(=O)c2ccc(Nc3c4ccccc4nc4c(C(=O)NCCCN(CCO)CCO)cccc34)cc2)n1 | 57.8 µM | 
O=[N+]([O-])c1ccc(C2=NOC(c3ccccc3F)N2C23CC4CC(CC(C4)C2)C3)cc1 (stereo not given) | > 100 µM | 
Cc1cccc2c1Oc1ccccc1C2NC(=O)c1ccc([N+](=O)[O-])cc1 (stereo not given) | > 100 µM | 
Cn1c2c(c3ccccc31)C1CCCCC1C1C(=O)NC(=O)C21 (stereo not given) | > 100 µM | 
COc1ccc2nc3cccc([N+](=O)[O-])c3c(NCCO)c2c1 | 0.174 µM | 
Cc1[nH]c(=O)nc(N/N=C/c2ccc(Cl)cc2)c1C(=O)NC(C)(CO)CO | > 100 µM | 
CCNC1(c2cccc(C)c2)OC(C)(C)c2cccc3cccc1c23 (stereo not given) | 41.4 µM | 
CC(=O)C(=[N+]=[N-])C(=O)OC(C)(C)C#N | > 10 µM | 

Reference: PubChem BioAssay (NCI)
